In article PMC12136788:
Some of the results follow.

T1: UNK ZnF1-3 (human, UniProt Q9C0B0 31-174)
T1 sequence: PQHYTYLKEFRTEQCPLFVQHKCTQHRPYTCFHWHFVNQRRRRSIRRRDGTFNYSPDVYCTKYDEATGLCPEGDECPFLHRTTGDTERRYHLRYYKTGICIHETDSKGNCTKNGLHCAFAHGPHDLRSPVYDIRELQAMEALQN

B1: chr4:77932910:77932911:+_ENSG00000138758_ENST00000541121|hu_hu|FALSE|FALSE (ssRNA)
RNA: GGGAGUUCUACAGUCCGACGAUCUUUAAUCUUCAAUUCCUCUUGCAGGUAGGCCUCGAACUGGGCAUCAAUAUAUUCUACUAUCGGCUUAUAGCUGUCAUCUUUAUUUAUCUGGUCUCCAAAUCCCACGGUGUCAACAAUGGUCAACAGAGGAUUGAGCAUCA
B2: chrX:140365796:140365797:-_ENSMUSG00000031285_ENSMUST00000033642|mus_mus|mus_mus_mus_hu_False|28_38 (ssRNA)
RNA: GGGAGUUCUACAGUCCGACGAUCCUUCUCAUUACUCAGUGCCUGCAAGGUUCUGGUUCGGUAGAAGCUACAGUGGGCGCUGUGAGUGGGGCUAGGCAGUCCAUUCAUCCGUGACCCUCGCAUGUUCCUGGAUGUCUUAUCUCUCAACAGAGGAUUGAGCAUCA
B3: chr14:31998760:31998761:-_ENSMUSG00000021910_ENSMUST00000163846|mus_mus|motif|central (ssRNA)
RNA: GGGAGUUCUACAGUCCGACGAUCUGCAGGCAGAAUGGCCACAUGAAGGACACCCCAAAGCACAAGACAGGUACAGACACGGUGGAGCUGGGAAGGCUUUCCAGCUCUGGAGUCACAAAAGGAAAAACAGCUUUUUGUCGUCUCCAACAGAGGAUUGAGCAUCA
B4: chr10:27409400:27409401:-_ENSG00000136758_ENST00000375972|hu_mus|FALSE|FALSE (ssRNA)
RNA: GGGAGUUCUACAGUCCGACGAUCAGCUUGGUUCACAAGAUUCUCCAACUCUGCUCCAGAGAACCCAACAGUCCCUCGAGCUAUGAUUUCUGGAUCAACAGAUUUAUCAAACUUUAUCUUGUUGAGAUACCAUUUCAAAAUUUCCAACAGAGGAUUGAGCAUCA
B5: chr12:73047227:73047228:+_ENSMUSG00000034574_ENSMUST00000085299|mus_mus|FALSE|FALSE (ssRNA)
RNA: GGGAGUUCUACAGUCCGACGAUCUUCAAAUCUUUUGGCAAAUUCUAGUUCAUCUUCAUUUCGGAGCAUUUCAAAAAAGUCUAAAUGCCUGUCUAGUGUUGAAUUUUCAUGUUCCCUUAAUUUAUCUAUAACAGGUUGAAUUCCCAACAGAGGAUUGAGCAUCA
B6: chr7:133995287:133995288:-_ENSMUSG00000030689_ENSMUST00000106343|mus_mus|FALSE|FALSE (ssRNA)
RNA: GGGAGUUCUACAGUCCGACGAUCGCCUGCCUUUGUUCUCAGGAAUUCUUCUAUGAGAUUGAACUCUCCACUCUGGCCACUAAGACCCUGGAGGUCACAGUCUGGGACUACGACAUUGGCAAAUCCAAUGACUUCAUAGGUGAGCAACAGAGGAUUGAGCAUCA
B7: chr16:94690367:94690368:+_ENSMUSG00000040785_ENSMUST00000117648|mus_mus|motif|central (ssRNA)
RNA: GGGAGUUCUACAGUCCGACGAUCUCUGUAUUUGCCACUGCCUACAGGUCACUAAAAAUACCUAGUUUUUGAAUAGUUUCGGAUACAGUUAGCUUGUUUUCAGGCCACAUUACAAGAUUGCAUGCAUUACUUUACACAAAAGUCCAACAGAGGAUUGAGCAUCA
B8: chr6:51419726:51419727:-_ENSMUSG00000004980_ENSMUST00000114459|mus_mus|FALSE|FALSE (ssRNA)
RNA: GGGAGUUCUACAGUCCGACGAUCUCCAUCGCGGACUCAGUCGCUUCAGCCCGAUUUCCCGCAGCCGAGCGAGAUGAGAAAGACCUCCGCGGACGGACGCGCACGGGACUCGUCCUGGCGCUGUGGGGAGAGCAGGCGAUGGCCCAACAGAGGAUUGAGCAUCA
B9: chr4:57314706:57314707:+_ENSG00000128050_ENST00000264221|hu_hu|FALSE|FALSE (ssRNA)
RNA: GGGAGUUCUACAGUCCGACGAUCCAGUAUUUCAAAUAUAGCCUGUGUAGCAUGACUCAUGAUAUCCACUUCAGUCUGGCCUAUAAGAAGUCCAGCAAAGCAAAAUUUUGCAGCAAUCAGCUGUUCCUCAGACCACUGUGGGUCCAACAGAGGAUUGAGCAUCA
B10: chr11:87793471:87793472:-_ENSMUSG00000020483_ENSMUST00000020775|mus_mus|mus_mus_mus_hu_False|1_68 (ssRNA)
RNA: GGGAGUUCUACAGUCCGACGAUCUGGACUUGAAAAUAAAAGAAUAAGCUGGAUCCCCCACCCCCCCACAGUGUCAACCCUACACGAGAGUUUUGAAGGCGACUCAUGAAAAUCAGCAGCUCAAACGGCAAUGACCACCCACCCCAACAGAGGAUUGAGCAUCA
B11: chr17:63407507:63407508:-_ENSMUSG00000023965_ENSMUST00000024761|mus_mus|FALSE|FALSE (ssRNA)
RNA: GGGAGUUCUACAGUCCGACGAUCGCUGAAUCAAACAACGCAGGCUCUUUUGGAAGUCUCCCUUUCUUCAUGAGCUGCUGGCAUCCUUACAGUUCGUUAUUAGCCAAGGGAGAUCACAGGACUGGGCGCUGAAGGAUCUUAGAUCAACAGAGGAUUGAGCAUCA
B12: chr12:48362563:48362564:+_ENSG00000134291_ENST00000256686|hu_hu|hu_hu_hu_mus_False|8_58 (ssRNA)
RNA: GGGAGUUCUACAGUCCGACGAUCUCCGUCAAGCCCUUCGAUAGACCCUUGCGGGGGAAACUGUAAUCACUUUGUAUUUCUAAAAAAAAGAAACGCCAAAAACUUUCCAAAAAGCGGGGGUGGGGUGUCCCAGGCCUGGGAGGUCAACAGAGGAUUGAGCAUCA
B13: chr12:86369911:86369912:+_ENSMUSG00000021244_ENSMUST00000021670|mus_mus|FALSE|FALSE (ssRNA)
RNA: GGGAGUUCUACAGUCCGACGAUCAACAGUUGCUUUGGGGCCUUUCCACUGUGGUCCACUCUGUCGAGGACUUAGGGAUGUAUUGGGAGUUAUAUAAAAUUGAGAUGCUGGGCCCCGAGGGAUCGUUCCCCAUUUGCUUUUAGUCAACAGAGGAUUGAGCAUCA
B14: chrM:14062:14063:+_ENSG00000198786_ENST00000361567|hu_hu|FALSE|FALSE (ssRNA)
RNA: GGGAGUUCUACAGUCCGACGAUCGUGAUGAUGGAGGUGGAGAUUUGGUGCUGUGAAAUUGUUUUAGGUAAUAGCUUUUCUAGUCAGGUUAGGUCUAGGAGGAGUAGGGGCAGGUUUUGGCUCGUAAGAAGGCCUAGAUAGGGGCAACAGAGGAUUGAGCAUCA
B15: chr5:37680062:37680063:+_ENSMUSG00000029121_ENSMUST00000031004|mus_hu|mus_mus_mus_hu_False|8_88 (ssRNA)
RNA: GGGAGUUCUACAGUCCGACGAUCUUUGGGUGUAGCUGGUACCUCGUACACAGGCCCGUCAUACAUGCCCCUGGAAACCCCUUGCAAUCCAAAAACCUUAUUCCUGAUUUUGACGCGCUGGUACAGGUGCUCUGGGAACGCCUUCAACAGAGGAUUGAGCAUCA
B16: chr9:110467127:110467128:+_ENSMUSG00000044791_ENSMUST00000153838|mus_mus|motif|central (ssRNA)
RNA: GGGAGUUCUACAGUCCGACGAUCUUCUUUGCCAUAUCUUUGGAACUGGUAGUCAAAAGUUAAUUCUGAGCCUGAAGGAACGGGUUUGGUGGUAAAAAAUCCAACCCUCAGCUGUCCAUUCACAGUCCAUUUCUGGGUUUCACACAACAGAGGAUUGAGCAUCA
B17: 46157249_46157369_1373_CDS_ENSMUSG00000015176_ENSMUST00000165017|mouse|control|control (ssRNA)
RNA: GGGAGUUCUACAGUCCGACGAUCAGGUUUCUGGUUACUGCCUGCAGGUUGCUUAGGAGUUGUCACUGCCUUUGCUGCAGAUGGCUUCGGAGUGACAGCUGGCUUGGGACUCUUGGUUGUACUGACUGGCUUGGCAGGAGCUUCCAACAGAGGAUUGAGCAUCA
B18: 33338705_33344351_3722_CDS_ENSG00000083642_ENST00000450460|human|control|control (ssRNA)
RNA: GGGAGUUCUACAGUCCGACGAUCCUGUACCAACUUAGUCAAGUCAUCCAUACCUAAUUUCUCCUCCUGUUCUGUGACGGGCGUUUUUUUCCUGCCUCUAGGCUUCUCCAAUUCAGACCUUACAAGAUCAGAGUCGUCUCUCUUCAACAGAGGAUUGAGCAUCA
B19: 247055108_247057967_1981_CDS_ENSG00000153207_ENST00000391829|human|control|control (ssRNA)
RNA: GGGAGUUCUACAGUCCGACGAUCUGCAAAACAGCUCAAGACUAUAUUAAGAUUGCUAAGAAGCAAAUAGCAUUGCUGGAUAGACUGUAUAGUUUGUGGAUCCAUGAAAUGACACGAACCAUCAAAUAAUGGCACACAUAGUCUCAACAGAGGAUUGAGCAUCA
B20: 118830706_118831971_2346_3pUTR_ENSG00000182197_ENST00000378204|human|control|control (ssRNA)
RNA: GGGAGUUCUACAGUCCGACGAUCAGCAGUGGCAGGCCAGCGGUGUUUGGCUGGUAGGGGCUUGUCACAAUUCCAUAGAACUAUGAUCUGGGCACAGUACUGGGACUUGGCUGCAGCCACGAGAAGCUUCAACACUGGCUGGGACAACAGAGGAUUGAGCAUCA
B21: chr13:60863204:60863205:+_ENSMUSG00000021559_ENSMUST00000077453|mus_hu|motif|central (ssRNA)
RNA: GGGAGUUCUACAGUCCGACGAUCAGUCCAAACAGACCCUGCCCAAGCCAGAGGCUGCCCUCACCGGGAUACAACAGAGCGGAUGGAAUUGUAAGAGGUGCCGCUGUUGCAGCUCGAGGCAUAGGCCUCCUGGCCAUUGCCAUCCAACAGAGGAUUGAGCAUCA
B22: chr9:95013113:95013114:-_ENSG00000196305_ENST00000443024|hu_hu|hu_hu_hu_mus_False|8_88 (ssRNA)
RNA: GGGAGUUCUACAGUCCGACGAUCCUCAGUCAGAAAGGGCGUGUAAGGAGCCAUAAGUCUGCACAGAGAAAGCAGGACACUGAACAGUGUCUCCAGAGCCAUGACACAGUCUUCCACCCCACUCUCACCCUUUAAUCUCCUCCUCAACAGAGGAUUGAGCAUCA

What follows are binders tested against T1, UNK ZnF1-3 (assay: nsRBNS (natural sequence RNA bind-n-seq); RBNS binding buffer (assumed for nsRBNS): 25 mM Tris pH 7.5, 150 mM KCl, 3 mM MgCl2, 0.01% Triton X-100, 500 ug/ml BSA, 20 U/ml SUPERase-In, 4 C; UNK is unkempt and MSI1 is Musashi-1; names of the RNAs are library labels; protein concentration not given here; high values mean tight binding).

| Binder | binding signal [enrichment R] |
| --- | --- |
| B1 | 0.954 |
| B2 | 0.657 |
| B3 | 1.13 |
| B4 | 1.23 |
| B5 | 0.652 |
| B6 | 1.06 |
| B7 | 1 |
| B8 | 0.455 |
| B9 | 0.911 |
| B10 | 2.36 |
| B11 | 1 |
| B12 | 1.69 |
| B13 | 0.914 |
| B14 | 2.28 |
| B15 | 0.732 |
| B16 | 0.932 |
| B17 | 0.547 |
| B18 | 0.584 |
| B19 | 0.6 |
| B20 | 1.45 |
| B21 | 0.784 |
| B22 | 1.34 |
